These results are taken from publication PMC4336329 (PLoS ONE, 2015).

About 2,200 (0.71%) of roughly 310,000 compounds showed an effect of 50% or more. The effect is printed as a negative number. This is one part of the list.

The target of the experiment is human ether-à-go-go-related gene (hERG) potassium channel (human, UniProt Q12809). Kind of experiment: primary screen, population patch clamp on CHO cells stably expressing hERG.
Chain of human ether-à-go-go-related gene (hERG) potassium channel (Q12809 whole entry, looked up): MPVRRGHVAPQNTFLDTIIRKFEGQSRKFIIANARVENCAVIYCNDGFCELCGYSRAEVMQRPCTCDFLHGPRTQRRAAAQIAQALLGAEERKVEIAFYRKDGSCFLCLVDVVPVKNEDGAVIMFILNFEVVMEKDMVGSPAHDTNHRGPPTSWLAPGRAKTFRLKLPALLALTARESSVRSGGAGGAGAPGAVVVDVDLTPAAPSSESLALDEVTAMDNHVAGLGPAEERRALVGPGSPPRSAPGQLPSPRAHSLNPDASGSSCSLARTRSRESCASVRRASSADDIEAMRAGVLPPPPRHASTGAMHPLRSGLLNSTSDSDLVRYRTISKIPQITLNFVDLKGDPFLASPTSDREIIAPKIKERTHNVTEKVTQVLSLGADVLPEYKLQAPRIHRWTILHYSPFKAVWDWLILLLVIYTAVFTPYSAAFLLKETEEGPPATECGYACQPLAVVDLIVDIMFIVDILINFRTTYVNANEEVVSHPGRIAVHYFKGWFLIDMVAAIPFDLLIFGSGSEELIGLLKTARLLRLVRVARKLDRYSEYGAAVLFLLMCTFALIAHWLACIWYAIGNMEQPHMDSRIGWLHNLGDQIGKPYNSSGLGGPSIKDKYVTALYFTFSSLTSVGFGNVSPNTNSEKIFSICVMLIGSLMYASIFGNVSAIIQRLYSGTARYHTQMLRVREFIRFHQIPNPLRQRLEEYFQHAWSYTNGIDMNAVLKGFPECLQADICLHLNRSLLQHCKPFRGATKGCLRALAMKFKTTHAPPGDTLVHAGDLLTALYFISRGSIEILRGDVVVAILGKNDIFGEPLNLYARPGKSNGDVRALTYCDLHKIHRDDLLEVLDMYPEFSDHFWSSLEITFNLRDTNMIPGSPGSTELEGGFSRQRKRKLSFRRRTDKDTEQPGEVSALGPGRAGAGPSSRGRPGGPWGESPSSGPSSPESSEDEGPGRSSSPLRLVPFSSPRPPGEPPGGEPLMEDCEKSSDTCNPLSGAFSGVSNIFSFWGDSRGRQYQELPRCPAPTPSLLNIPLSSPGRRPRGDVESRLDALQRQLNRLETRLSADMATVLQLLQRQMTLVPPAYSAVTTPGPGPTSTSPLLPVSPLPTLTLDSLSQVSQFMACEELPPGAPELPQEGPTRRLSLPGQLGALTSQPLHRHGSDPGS
As to `CC1(C)C(=O)C=C[C@]2(C)[C@H]3CC[C@@]4(C)[C@H](c5ccoc5)OC(=O)[C@H]5O[C@]54[C@]3(C)[C@H](O)C[C@@H]12`, the “hERG current change (%, negative = inhibition) at 1uM” value is 20.5%.
`O=C(NCC1COc2ccccc2O1)c1cccc(S(=O)(=O)NCc2ccccc2)c1` (stereo not shown): the “hERG current change (%, negative = inhibition) at 1uM” value was 7.26%.
`Cc1cc(C(=O)Nc2nnc(C3CCCCC3)s2)no1`: the “hERG current change (%, negative = inhibition) at 1uM” value is on record as -9.16%.
In the case of `COc1ccc(C(C(=O)NCCC(C)C)N(CCO)C(=O)c2snc(C(N)=O)c2N)cc1OC` (stereo not shown), the “hERG current change (%, negative = inhibition) at 1uM” value worked out at 10.6%.
Take `CCC(C)[C@H](NC(=O)NCc1ccco1)C(=O)O` (stereo partly shown): the “hERG current change (%, negative = inhibition) at 1uM” value is reported as 20%.
In the case of `Cc1cc(C)n2nc(SCC(=O)N/N=C/c3ccccn3)nc2n1`, the “hERG current change (%, negative = inhibition) at 1uM” value is 7.69%.
For the molecule `Cc1cc([N+](=O)[O-])nn1CC(=O)NCCCn1ccnc1`, the “hERG current change (%, negative = inhibition) at 1uM” value worked out at 5.44%.
As for `S=c1[nH]nc(-c2cccnc2)n1/N=C/C=C/c1ccccc1`, the “hERG current change (%, negative = inhibition) at 1uM” value stood at 16.3%.
Under `Clc1ccc(-c2cc3ccccc3nc2N2CCOCC2)cc1` stands 14.5%.
For the molecule `CCC(=O)Nc1cccc(-c2cnc3ccccc3n2)c1`, the “hERG current change (%, negative = inhibition) at 1uM” value is given as -1.64%.
As to `O=C(Cn1cc2c(n1)CCCCC2)NCCN1CCOCC1`, the “hERG current change (%, negative = inhibition) at 1uM” value is recorded as 7.8%.
Regarding `CCCN1C(=O)C(O)(C2CC(=O)CC(C)(C)O2)c2ccccc21` (stereo not shown), the “hERG current change (%, negative = inhibition) at 1uM” value amounted to 2.89%.
Consider `COC(=O)Cc1ccc(NC(=S)NCc2ccc(F)cc2)cc1`, for which the “hERG current change (%, negative = inhibition) at 1uM” value was -19.8%.
As to `S=C(c1ccc(-c2ccccc2Cl)o1)N1CCOCC1`, the “hERG current change (%, negative = inhibition) at 1uM” value turned out to be 11.8%.
As to `CC1CC(C)CN(CCCOc2ccccc2[N+](=O)[O-])C1.O=C(O)C(=O)O` (stereo not shown), the “hERG current change (%, negative = inhibition) at 1uM” value is recorded as 5.91%.
As to `Cc1c(C(=O)NCc2ccc3c(c2)OCO3)oc2ccc(S(=O)(=O)N3CCCC3)cc12`, the “hERG current change (%, negative = inhibition) at 1uM” value was 19.4%.
For `O=C1C2CCCN2C(=O)N1CCN1CCN(c2ccccc2)CC1` (stereo not shown), the “hERG current change (%, negative = inhibition) at 1uM” value is -10.6%.
As to `COc1ccccc1CNC(=O)COC(=O)c1ccc(-n2cnnn2)cc1`, the “hERG current change (%, negative = inhibition) at 1uM” value is -2.42%.
For the molecule `COc1ccc(OCC(=O)N(Cc2ccco2)C2CCS(=O)(=O)C2)cc1` (stereo not shown), the “hERG current change (%, negative = inhibition) at 1uM” value was found to be 3.06%.
For the molecule `Cc1ccc(OCc2nc3ccccc3n2C)cc1`, the “hERG current change (%, negative = inhibition) at 1uM” value is reported as 2.93%.
Consider `CCOC(=O)C1=C(C)NC(C)=C(C(=O)OCC)C1C(=O)OCC(=O)N1CCCCC1C` (stereo not shown), for which the “hERG current change (%, negative = inhibition) at 1uM” value was found to be 10.5%.
In the case of `NC(=O)NC(=O)C[n+]1cccc(/C=N/O)c1.[Cl-]`, the “hERG current change (%, negative = inhibition) at 1uM” value was 9.69%.
Consider `C=CCn1c(=N)c(C(=O)NCCCOC)cc2c(=O)n3cccc(C)c3nc21`, for which the “hERG current change (%, negative = inhibition) at 1uM” value is given as -64.2%.
For `CCc1nn(CC(=O)NCCCN2CCc3ccccc3C2)c(=O)c2cc3sccc3n12`, the “hERG current change (%, negative = inhibition) at 1uM” value is recorded as -53.8%.
Under `COCCCN(C(C)=O)c1nc(-c2ccccc2)cs1` stands -7.48%.
Consider `Cc1c(NC(=O)C2CCN(S(=O)(=O)c3cccs3)CC2)c(=O)n(-c2ccccc2)n1C`, for which the “hERG current change (%, negative = inhibition) at 1uM” value worked out at 15.7%.
Turning to `COc1cccc(C(=O)O/N=C(\N)c2ccc(C)cc2)c1`, the “hERG current change (%, negative = inhibition) at 1uM” value is listed as -8.69%.
Turning to `Cc1ccc(C)c(NC(=O)CCN2CC(C)OC(C)C2)c1` (stereo not shown), the “hERG current change (%, negative = inhibition) at 1uM” value is recorded as 3.16%.
Take `CC(=O)N1N=C(N)SC1(C)C`: the “hERG current change (%, negative = inhibition) at 1uM” value was 9.04%.
As to `CCn1c(SCc2nc3cc(OC)c(OC)cc3c(=O)[nH]2)nnc1-c1ccncc1`, the “hERG current change (%, negative = inhibition) at 1uM” value is -1.74%.
As for `COCCNC(=O)c1c(N)sc2c1CCCC2`, the “hERG current change (%, negative = inhibition) at 1uM” value is -2.01%.
For `c1ccc(-n2ncc3c(NCC4CCCO4)ncnc32)cc1` (stereo not shown), the “hERG current change (%, negative = inhibition) at 1uM” value was -0.84%.
Under `Cc1ccc(C2(c3noc(CN(C)Cc4cccnc4)n3)CCCC2)cc1` stands -16.5%.
Consider `C=CC1=C2C=C(C3CC3)N(C3CC3)C=C2C(=O)C(C)(OC(=O)c2ccco2)C1=O` (stereo not shown), for which the “hERG current change (%, negative = inhibition) at 1uM” value is 12%.
Under `NC(=O)NC(=O)CC1S/C(=N/N=C/c2ccccc2)NC1=O` (stereo not shown) stands 13.7%; under `Cc1ccc(NC(=O)Cn2c(=O)n(CCC(=O)NC3CCN(Cc4ccccc4)CC3)c(=O)c3ccccc32)cc1`, 2.78%; under `COc1ccc(/C=N/NC(=O)c2cc3c(OC)ccc(OC)c3[nH]2)cc1O`, 14.6%.
Regarding `CCc1ccc(NC(=O)c2ccc3c(=O)n4c(nc3c2)CCCCC4)cc1`, the “hERG current change (%, negative = inhibition) at 1uM” value is on record as 3.08%.
For the molecule `CCc1ccc(Nc2nnc(SCC(=O)N(C)CC(=O)Nc3ccccc3CC)s2)cc1`, the “hERG current change (%, negative = inhibition) at 1uM” value is 1.22%.
For `CC(C)(C)NC(=O)CN(C(=O)CCN1CCCc2ccccc21)C(C)(C)C`, the “hERG current change (%, negative = inhibition) at 1uM” value was 4.15%.
For the molecule `CCCOc1nc2c(c(=O)n(C)c(=O)n2C)n1Cc1cccc2ccccc12`, the “hERG current change (%, negative = inhibition) at 1uM” value is on record as 10.1%.
With `C/C(=N\Nc1cccc2cccnc12)c1ccccc1O`, the “hERG current change (%, negative = inhibition) at 1uM” value was 9.35%.
Under `Cn1ccnc1SCC(=O)NC1(C#N)CCCCC1` stands 9.36%.
For `CCN(CC)C(=O)Nc1c(C)n(C)n(-c2ccccc2)c1=O`, the “hERG current change (%, negative = inhibition) at 1uM” value worked out at 8.7%.
Regarding `Cn1c(=O)oc2cc(S(=O)(=O)N3CCC(C(=O)N4CCN(c5ccccc5)CC4)CC3)ccc21`, the “hERG current change (%, negative = inhibition) at 1uM” value was -4.39%.
Under `COC(=O)C1=C(C)N(c2ccc(OC)c(OC)c2)C(=O)/C1=C\c1cccs1` stands 12.1%.
Regarding `Cc1c(-c2nc(N)nc(Nc3ccccc3)n2)oc2ccccc12`, the “hERG current change (%, negative = inhibition) at 1uM” value is given as 16.8%.
Under `CCN1CCN(Cc2ccc(NC(=O)c3ccc(C)c(NC(=O)c4nccn4C)c3)cc2C(F)(F)F)CC1` stands 9.97%; under `O=C(Nc1nc(-c2ccccc2)ns1)c1cccs1`, 4.25%; under `CC(C)Cn1c(N2CCN(CC(=O)Nc3ccc(Cl)cc3)CC2)nc2ccccc21`, -30%.
Regarding `O=C(CCC(=O)n1ncc2ccccc21)NCc1ccccc1Cl`, the “hERG current change (%, negative = inhibition) at 1uM” value amounted to 17.8%.
On to `Cc1cccc(-n2cc(-c3ccc([N+](=O)[O-])cc3)[nH]c2=S)c1`, for which the “hERG current change (%, negative = inhibition) at 1uM” value worked out at 12.7%.
As to `O=C(COC(=O)c1ccccc1SCC(=O)N1CCCC1)Nc1ccc(OC(F)F)cc1`, the “hERG current change (%, negative = inhibition) at 1uM” value was -7.26%.
Under `COc1ccc(C(=O)CCc2nc3ccccc3s2)cc1` stands 15%; under `O=c1[nH]c(C2CCN(S(=O)(=O)c3ccc(C(F)(F)F)cc3)CC2)nc2c1nnn2Cc1cccc(F)c1`, 15.6%.
Turning to `O=C(O)C(=O)O.O=S(=O)(c1ccc(F)cc1)N1CCN(CC2CC3C=CC2C3)CC1` (stereo not shown), the “hERG current change (%, negative = inhibition) at 1uM” value is recorded as 18%.
As to `C/C(=N/NS(=O)(=O)c1ccc(C(C)(C)C)cc1)c1ccc2c(c1)OCO2`, the “hERG current change (%, negative = inhibition) at 1uM” value came to 17.5%.
As to `CCOc1ccc(N2C(=O)C3Sc4[nH]c(=O)sc4C(/C=C/c4ccccc4)C3C2=O)cc1` (stereo not shown), the “hERG current change (%, negative = inhibition) at 1uM” value amounted to 7.15%.
`CCCCN(C(=O)CCCc1nc2ccccc2c(=O)[nH]1)c1c(N)n(CC(C)C)c(=O)[nH]c1=O`: the “hERG current change (%, negative = inhibition) at 1uM” value is listed as 5.91%.
Under `CCOC(=O)N1CCN(C(=O)c2noc(C(C)C)c2[N+](=O)[O-])CC1` stands 3.93%; under `Cc1cccc(NS(=O)(=O)c2cc3c(cc2C)N(C)CCO3)c1`, 13.1%; under `Cc1c(-c2cccc(Cl)c2)nc2ccccc2c1C(=O)OC/C(O)=C(\C#N)c1nc2ccccc2[nH]1`, 2.62%.
With `O=C(Nc1nccs1)C(Cl)(Cl)Cl`, the “hERG current change (%, negative = inhibition) at 1uM” value is on record as 15.2%.
In the case of `C=CCNC(=O)c1cn(CC)c2cc(N3CCN(C(=O)c4ccco4)CC3)c(F)cc2c1=O`, the “hERG current change (%, negative = inhibition) at 1uM” value is recorded as -20.2%.
For the molecule `O=C(O)CSCC(=O)N1CCN(c2cc(C(F)(F)F)nc3ccccc23)CC1`, the “hERG current change (%, negative = inhibition) at 1uM” value is given as 16.7%.
Under `COc1cc(/C=C2/SC(=S)N(Cc3ccccc3)C2=O)ccc1O` stands 5.53%.
Under `CCOC(=O)C1=C(CSc2nc(-c3ccccc3)ccc2C#N)OC(N)=C(C#N)C1c1ccc(OC)cc1` (stereo not shown) stands 11.7%; under `Cc1cccc(C)c1NC(=O)COC(=O)c1ccc2[nH]c3c(c2c1)CCCC3`, 1.86%; under `CCn1cc(C(=O)NCCCN2CCC(C)CC2)c(=O)c2cc(S(=O)(=O)N3CCCC3)ccc21`, 0.579%.
Under `Cc1ccc2oc(=O)n(CCOc3ccccc3C)c2c1` stands 7.66%.
With `COc1ccc2nc(NC(=S)N(C)C)sc2c1`, the “hERG current change (%, negative = inhibition) at 1uM” value was determined as 19.9%.
In the case of `Cc1ccc(CN2CCN(Cc3ccccn3)CC2CCO)cc1` (stereo not shown), the “hERG current change (%, negative = inhibition) at 1uM” value is -5.1%.
Under `CCN1CCN(S(=O)(=O)c2ccc(Cl)c(C(=O)NC3CCCC3)c2)CC1` stands 11.1%.
As to `O=C(CCCn1cnc([N+](=O)[O-])n1)Nc1cccc(O)c1`, the “hERG current change (%, negative = inhibition) at 1uM” value is listed as 9.8%.
Under `O=C1/C(=C/c2ccco2)Cc2ccccc21` stands 7.18%; under `COc1ccc(Cl)cc1C(=O)NNC(=O)c1csc(N2CCOCC2)n1`, 15.5%; under `O=C(Nc1ccc2c(c1)OCCO2)C1CC1c1ccccc1` (stereo not shown), 12%.
Under `CS(=O)(=O)O.CSc1ccc2c(c1)C(N1CCN(C)CC1)Cc1ccccc1S2` (stereo not shown) stands -23.7%; under `CC(C)(C)c1cnnn1-c1ccc(-c2csc(N)n2)cc1`, 11%; under `CC(C)c1ccc(CN2CC(C(=O)Nc3ccccc3)CC2=O)cc1` (stereo not shown), 4.08%.
For the molecule `CSCCC(NC(=O)C1CCC(C)CC1)C(=O)NCCN1CCC(C)CC1` (stereo not shown), the “hERG current change (%, negative = inhibition) at 1uM” value was 5.51%.
For the molecule `COc1ccc(C(C)=O)cc1COC(=O)CSC(C)C(=O)Nc1cc(C)on1` (stereo not shown), the “hERG current change (%, negative = inhibition) at 1uM” value stood at 11%.
As for `CCCc1cc(C(=O)Nc2nnc(C)s2)cs1`, the “hERG current change (%, negative = inhibition) at 1uM” value is recorded as 3.35%.
As for `CCCCCCCCc1nnc(NC(=O)c2ccco2)s1`, the “hERG current change (%, negative = inhibition) at 1uM” value came to 14.6%.
For `COC(=O)C1=C(C)N(C)C(=S)NC1c1cc(OC)ccc1OC` (stereo not shown), the “hERG current change (%, negative = inhibition) at 1uM” value is 2.93%.
`CCCN(CCC)C(=O)c1oc2ccccc2c1NC(=O)Cc1cccc(OC)c1`: the “hERG current change (%, negative = inhibition) at 1uM” value came out at 19.2%.
As to `COCCCNC(=O)c1c[nH]c2ccc(S(=O)(=O)N(C)c3ccccc3C)cc2c1=O`, the “hERG current change (%, negative = inhibition) at 1uM” value is recorded as -3.74%.
In the case of `O=C(NCCc1nnc2ccc(NCc3ccc(Cl)cc3)nn12)c1ccccc1`, the “hERG current change (%, negative = inhibition) at 1uM” value was 2.58%.
